The results in this text go back to the supplement of paper PMC10126150.

Values marked as one replicate rest on one cluster of the flow cell; about a third of the high ones do not repeat.

The test system of the series is ATP. Kind of series: switch fluorescence ratio, 500 uM ATP over buffer (Cy3 cluster intensity, sum of 5 cycles each) (fold (ratio)); higher = stronger signal-on switching upon ATP binding; sequences stand for … in TCGTCGGCAGCGTCAGATGTGTATAAGAGACAGTTTTTTTTTTTTTTTTTTTTTTTTT…TC. To be noted: aptamer strand: ATP DNA aptamer (quencher-CACCTGGGGGAGTATTGCGGAGGAAGG + anchor), 100 nM annealed; ATP concentration: 500 uM; one replicate. The procedure, abridged: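 Cy3-labelled switching-strand clusters on a modified Illumina MiSeq flow-cell were annealed to 100 nM quencher-labelled ATP aptamer, imaged in selection buffer, then imaged after 15 min with 500 uM ATP at 22 °C. Five buffer/ATP cycles ran, with NaOH stripping and re-annealing between them. The fluorescence ratio is summed target-cycle over summed buffer-cycle Cy3 intensity per cluster, averaged per switch-domain sequence. Clusters outside 100-1000 RFU were excluded.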
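Also: ATP exposure 15 min at 22 °C before imaging.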

As for GCAATCTACT, the switch fluorescence ratio worked out at 1.84.
As to GGGCGGGTT, the switch fluorescence ratio was found to be 0.934.
Consider TGGGCTGCAG, for which the switch fluorescence ratio worked out at 1.03.
The result for GAGGTTACTC reads 0.989.
With CTGAGCCGGC, the switch fluorescence ratio came to 1.03.
Regarding CGTTGGTACT, the switch fluorescence ratio came to 1.04.
As for ACGATCAAGC, the figure is 1.27; as for TGAAGAACGT, 1.08; as for CCAGAAAGCA, 1.06.
The result for CATCAACGCA reads 1.54; that for CCAAGTACTC, 1.6; that for TCAGAGTGTT, 1.
The result for ACGTTTGGTC reads 1.02; that for GCTGGCCGGG, 1.01.
GCAAGAGTAG: the switch fluorescence ratio was 1.
Regarding CGGCGTATGG, the switch fluorescence ratio was determined as 1.02.
Consider AACGATTCCG, for which the switch fluorescence ratio came to 1.05.
As for CAATACGCTT, the figure is 1.15.
For the sequence TGAGCGGGCG, the switch fluorescence ratio amounted to 0.947.
For the sequence CGCCACGGCC, the switch fluorescence ratio worked out at 1.08.
The result for TACGGGCTTC reads 0.988; that for CCAGCATCTT, 1.04; that for CATGGTTCGG, 0.976.
With CTCTGAAATG, the switch fluorescence ratio amounted to 1.15.
Regarding TTCGGGAGCA, the switch fluorescence ratio was 1.23.
For the sequence TGCCATTGAG, the switch fluorescence ratio amounted to 0.933.
Take AGGTCGGTCG: the switch fluorescence ratio is 0.984.
The result for TCTTCGACTG reads 0.989; that for CAAAGGAGTT, 1.01; that for TTTGATGGCA, 1.1.
The result for GCTATGGGTG reads 1.01; that for CTTTTCCGTT, 1.02; that for TTATCCTATG, 1.
As for GCATAGTTG, the figure is 1.02; as for CAAGTTTGCA, 0.986; as for GGGCCATTAG, 1.01.
Turning to TATTCTACTC, the switch fluorescence ratio came to 1.06.
The result for GCTCGTAAAC reads 1.82; that for AATCAGTAGA, 1; that for CGATAACAGG, 2.14.
The result for CGTCAGGAGG reads 1.02.
As for ACCTCATGGG, the figure is 1.26; as for CTAGCGAAAG, 0.985; as for ATAAGGGACT, 1.03.
With ACGCTAAGTC, the switch fluorescence ratio was found to be 1.09.
For GGAGGGTCCC, the switch fluorescence ratio was determined as 1.01.
The result for GCGCTGAAAG reads 1.02.
Consider AGATCATTGT, for which the switch fluorescence ratio was determined as 1.07.
The result for AAGCGGAGCT reads 0.958.
As for TTCAGTCGGT, the figure is 1.04; as for TCTAGGTTAT, 0.975.
As for GGCCCTAATC, the figure is 1.01.
Turning to CGGACTGACC, the switch fluorescence ratio worked out at 1.1.
The result for AATGTAGAGC reads 1.06; that for TGCCACATGA, 0.971.
The result for CTCAGGGAGA reads 0.971; that for CTCTTGAAGA, 0.955.
The result for GCAAGGGAGC reads 1.02.
With GAGGATAGAG, the switch fluorescence ratio came out at 0.962.
As for TGCCCAGGGA, the figure is 1.29.
As for GAATGAATTA, the switch fluorescence ratio came to 0.991.
TAATAAGAGT: the switch fluorescence ratio stood at 0.992.
The result for GATCATGTCA reads 1.02; that for CGTGATTCTC, 1.22.
As for TTCTTTTGAA, the switch fluorescence ratio is 0.966.
As to TACCAGCGTT, the switch fluorescence ratio came to 1.02.
As to GACCGTCTCG, the switch fluorescence ratio is 1.03.
The result for ACTCGAGCGT reads 1.12; that for TTCCGCGCGT, 1.05; that for ACAAGGC, 1.02.
As for GATTTACGGG, the figure is 1.06; as for AACGAGGCGC, 0.984.
As to TTCGAAGTGT, the switch fluorescence ratio was 1.
The result for GCCAGGACAT reads 0.943; that for AATCTGACAG, 1; that for TCGCTAGACG, 1.09.
The result for TACCTCGCGC reads 1.78.
As for CCTACGGACT, the figure is 2.23.
Regarding ACACTTCACG, the switch fluorescence ratio was found to be 1.46.
The result for TTGCGTTCCG reads 1.01.
For CCAGCGATTA, the switch fluorescence ratio is 1.51.
On to GGGGGAGATC, for which the switch fluorescence ratio came to 1.07.
For the sequence GAGGGATATG, the switch fluorescence ratio was found to be 0.975.
As for CCACGGGATA, the figure is 1.09; as for ATCGTGGCAC, 0.981.
For CTATTTAGAC, the switch fluorescence ratio stood at 0.987.
The result for AGGGTTGCT reads 0.983.
Turning to CACGTAGCGC, the switch fluorescence ratio was determined as 1.36.
Consider CGTGCTTATG, for which the switch fluorescence ratio stood at 1.03.
The result for GTTATAAAAG reads 0.982.
As to CTAGCAGGGA, the switch fluorescence ratio worked out at 0.98.
As for GACGAGTTCA, the figure is 0.991; as for GCAACCTCTG, 1.05; as for TTTCAATGC, 1.37.
The result for ATTCTGATTC reads 0.976.
The result for CGTCTTTCCT reads 1.04; that for TCTACCTCTC, 1.06; that for CGGGCATATG, 0.995.
For ATTTGTCACG, the switch fluorescence ratio was 1.
On to TGATCTGTT, for which the switch fluorescence ratio was found to be 1.
In the case of CACAAAGAGT, the switch fluorescence ratio was found to be 1.06.
The result for GACAAAAATT reads 0.996; that for CGGTCTGGGC, 0.972; that for GTGACATGTG, 0.932.
The result for TTGTGGGAG reads 1.02; that for CAGTGTACCC, 1.18; that for GGTGTTCCTG, 1.
Regarding AGGTAAATAC, the switch fluorescence ratio turned out to be 1.8.
As for CAGTAAGGGG, the switch fluorescence ratio is 0.983.
As for GCATCCTTGT, the figure is 1.01; as for GCGGGTGC, 1.08; as for AGGTATAAAG, 0.94.
CGGTTATGTG: the switch fluorescence ratio is 0.984.
On to TACAAAAACA, for which the switch fluorescence ratio is 0.979.
The result for TGTGGGGAT reads 0.995; that for TACGGTGCAT, 1.07; that for CATACGTATG, 1.03.
As for TAAACGTATC, the figure is 1.13; as for AAAGCGTTGG, 0.971; as for CGGAACCCAA, 1.1.
